# Measured values published in ChEMBL document CHEMBL5606460, “ASAP - DENV-2 NS2B-NS3 protease fluorescence single point” (2024).
# About 110 (5.5%) of roughly 2,000 compounds showed an effect of 50% or more. The list shows a part of the results.
# Biological target: Genome polyprotein (dengue virus type 2) (UniProt P29990)
# [1] = Thailand/16681/1984, Concentration 25.0 uM, Number of replicates 1.0
smiles,measurement,setting,value
NCc1cccc(NC(=O)[C@H]2c3ccccc3OCCN2C(=O)OCc2ccccc2)c1,inhibition,"Thailand/16681/1984, Concentration 49.5 uM, Number of replicates 2.0, Standard deviation 1.7656972055296958 %",-3.82%
same,inhibition,"Thailand/16681/1984, Concentration 99.01 uM, Number of replicates 2.0, Standard deviation 2.8588695958622563 %",-2%
same,inhibition,"Thailand/16681/1984, Concentration 198.0 uM, Number of replicates 2.0, Standard deviation 1.1430363557817578 %",4.7%
O=Cc1ccc(N2CCC(C(=O)Nc3ncc(Br)cc3O)CC2)cc1,inhibition,[1],52.8%
Cc1nccn1-c1ccc(NC(=O)C2CCN(c3ccc(C=O)cc3)CC2)cc1,inhibition,[1],16.6%
CC(C)(C)c1ccc(O)c(NC(=O)C2CCN(c3ccc(C=O)cc3)CC2)c1,inhibition,[1],15.4%
Cc1cc(CO)c2cccc(CC(=O)Nc3cccc(C(N)=O)c3)c2n1,inhibition,"Thailand/16681/1984, Concentration 49.95 uM, Number of replicates 2.0, Standard deviation 0.3351031861891448 %",71.5%
same,inhibition,"Thailand/16681/1984, Concentration 99.9 uM, Number of replicates 2.0, Standard deviation 0.3101738310571331 %",94.2%
O=Cc1ccc(N2CCC(C(=O)Nc3ccc(-c4ccccc4)cc3)CC2)cc1,inhibition,[1],7.56%
O=Cc1ccc(N2CCC(C(=O)N3CCN(CCc4ccccc4)CC3)CC2)cc1,inhibition,[1],33%
O=Cc1ccc(N2CCC(C(=O)NCc3noc(-c4ccco4)n3)CC2)cc1,inhibition,[1],12.6%
O=Cc1ccc(N2CCC(C(=O)N3Cc4ccc(Br)cc4C3)CC2)cc1,inhibition,[1],14.2%
CNC(=O)c1cc(Cl)ccc1NS(=O)(=O)c1ccc(CN(C)C)cc1,inhibition,"Thailand/16681/1984, Concentration 49.5 uM, Number of replicates 2.0, Standard deviation 2.702318864967168 %",-1.49%
same,inhibition,"Thailand/16681/1984, Concentration 99.01 uM, Number of replicates 2.0, Standard deviation 0.41666131566655296 %",-0.19%
same,inhibition,"Thailand/16681/1984, Concentration 198.0 uM, Number of replicates 2.0, Standard deviation 0.6338418186019992 %",1.72%
Cc1cc(CO)c2cccc(NCC3CCNCC3)c2n1,inhibition,"Thailand/16681/1984, Concentration 49.95 uM, Number of replicates 2.0, Standard deviation 0.8313641199663653 %",-6.22%
same,inhibition,"Thailand/16681/1984, Concentration 99.9 uM, Number of replicates 2.0, Standard deviation 1.3048073716258033 %",0.772%
Cc1cc(CO)c2cccc(C[C@H](NC(=O)C(=O)c3ccco3)C(=O)O)c2n1,inhibition,"Thailand/16681/1984, Concentration 49.95 uM, Number of replicates 2.0, Standard deviation 2.1984135254678594 %",1.13%
same,inhibition,"Thailand/16681/1984, Concentration 99.9 uM, Number of replicates 2.0, Standard deviation 0.8113996635889369 %",5.56%
CNC(=O)c1nc(Cl)ccc1NS(=O)(=O)c1ccc(Oc2ccccc2Cl)cc1,inhibition,"Thailand/16681/1984, Concentration 49.5 uM, Number of replicates 2.0, Standard deviation 0.5855266102241418 %",6.34%
same,inhibition,"Thailand/16681/1984, Concentration 99.01 uM, Number of replicates 2.0, Standard deviation 0.14494638377684543 %",6.62%
same,inhibition,"Thailand/16681/1984, Concentration 198.0 uM, Number of replicates 2.0, Standard deviation 0.056926230997118174 %",4.4%
O=Cc1ccc(N2CCC(C(=O)N3CC[C@@]4(O)CCCC[C@H]4C3)CC2)cc1,inhibition,[1],13.8%
CNC(=O)c1cc(Cl)ccc1NS(=O)(=O)c1ccc(OC)nc1,inhibition,"Thailand/16681/1984, Concentration 49.5 uM, Number of replicates 2.0, Standard deviation 0.9512953587010552 %",-0.281%
same,inhibition,"Thailand/16681/1984, Concentration 99.01 uM, Number of replicates 2.0, Standard deviation 1.3945954055764564 %",0.501%
same,inhibition,"Thailand/16681/1984, Concentration 198.0 uM, Number of replicates 2.0, Standard deviation 1.9130696672739496 %",1.69%
O=Cc1ccc(N2CCC(C(=O)N3CCN(C(=O)[C@@H]4CCCO4)CC3)CC2)cc1,inhibition,[1],13.2%
C[C@@H](C(=O)NCc1ccc(N2CCN(C)CC2)cc1)c1ccccc1,inhibition,"Thailand/16681/1984, Concentration 49.5 uM, Number of replicates 2.0, Standard deviation 0.5938509183696951 %",0.242%
same,inhibition,"Thailand/16681/1984, Concentration 99.01 uM, Number of replicates 2.0, Standard deviation 1.5516151545043084 %",0.125%
same,inhibition,"Thailand/16681/1984, Concentration 198.0 uM, Number of replicates 2.0, Standard deviation 1.8826140805854623 %",0.385%
O=Cc1ccc(N2CCC(C(=O)N3CCC(N4CCCC4=O)CC3)CC2)cc1,inhibition,[1],12.4%
Cc1cc(CO)c2cccc(NC(=O)C3CCC(N)CC3)c2n1 (configuration not stated),inhibition,"Thailand/16681/1984, Concentration 49.95 uM, Number of replicates 2.0, Standard deviation 0.3430335372049546 %",80.8%
same,inhibition,"Thailand/16681/1984, Concentration 99.9 uM, Number of replicates 2.0, Standard deviation 0.009052468710563864 %",98.8%
Nc1ccc2c(Cl)cccc2n1,inhibition,"Thailand/16681/1984, Concentration 49.95 uM, Number of replicates 2.0, Standard deviation 6.716644341731542 %",-6.5%
same,inhibition,"Thailand/16681/1984, Concentration 99.9 uM, Number of replicates 2.0, Standard deviation 7.103273230337014 %",-6.29%
Cc1nn(Cc2cccc(F)c2F)cc1C1CCNCC1,inhibition,"Thailand/16681/1984, Concentration 49.5 uM, Number of replicates 2.0, Standard deviation 0.22901046476794615 %",-2.99%
same,inhibition,"Thailand/16681/1984, Concentration 99.01 uM, Number of replicates 2.0, Standard deviation 0.3068924460194689 %",-2.95%
same,inhibition,"Thailand/16681/1984, Concentration 198.0 uM, Number of replicates 2.0, Standard deviation 1.605854523908857 %",-2.42%
COCC[C@@H](NC(=O)OCc1ccccc1)C(=O)Nc1cccc(CN)c1,inhibition,"Thailand/16681/1984, Concentration 49.5 uM, Number of replicates 2.0, Standard deviation 0.33482864161794484 %",-1.87%
same,inhibition,"Thailand/16681/1984, Concentration 99.01 uM, Number of replicates 2.0, Standard deviation 0.002886469067117089 %",-1.32%
same,inhibition,"Thailand/16681/1984, Concentration 198.0 uM, Number of replicates 2.0, Standard deviation 0.2560696265957589 %",-1.04%
Cc1cc(NC(=O)C2CCN(c3ccc(C=O)cc3)CC2)cnc1Br,inhibition,[1],10.6%
O=Cc1ccc(N2CCC(C(=O)NCc3ccc(SC(F)(F)F)cc3)CC2)cc1,inhibition,[1],3.18%
COc1ccc(-c2cc(NC(=O)C3CCN(c4ccc(C=O)cc4)CC3)[nH]n2)cc1,inhibition,[1],0.343%
O=C(c1nc2ccccc2[nH]1)N1CCCC[C@H]1c1nc2ccccc2[nH]1,inhibition,"Thailand/16681/1984, Concentration 49.5 uM, Number of replicates 2.0, Standard deviation 0.9679631096613857 %",-0.099%
same,inhibition,"Thailand/16681/1984, Concentration 99.01 uM, Number of replicates 2.0, Standard deviation 0.7361712005044555 %",0.613%
same,inhibition,"Thailand/16681/1984, Concentration 198.0 uM, Number of replicates 2.0, Standard deviation 1.3068429485050461 %",1.8%
N#Cc1cccnc1N1CCN(C(=O)C2CCN(c3ccc(C=O)cc3)CC2)CC1,inhibition,[1],12.3%
CCCCCC(=O)N[C@H](C(=O)NCc1cccc(CN)c1)C(C)C,inhibition,"Thailand/16681/1984, Concentration 49.5 uM, Number of replicates 2.0, Standard deviation 0.790767685424793 %",-1.91%
same,inhibition,"Thailand/16681/1984, Concentration 99.01 uM, Number of replicates 2.0, Standard deviation 0.5529643765331101 %",-1.86%
same,inhibition,"Thailand/16681/1984, Concentration 198.0 uM, Number of replicates 2.0, Standard deviation 0.2038996463796708 %",-0.642%
Cc1nccn1-c1ccccc1CNC(=O)C1CCN(c2ccc(C=O)cc2)CC1,inhibition,[1],15.3%
